Test results: the BET-seq Pho4 binding data (Le et al. 2018)
The other results are listed elsewhere or left out. The energies were worked out here from pooled read counts, against the library average; single values are noisy.

Biological target: T1, Pho4 (S. cerevisiae) (UniProt P07270)
T1 sequence: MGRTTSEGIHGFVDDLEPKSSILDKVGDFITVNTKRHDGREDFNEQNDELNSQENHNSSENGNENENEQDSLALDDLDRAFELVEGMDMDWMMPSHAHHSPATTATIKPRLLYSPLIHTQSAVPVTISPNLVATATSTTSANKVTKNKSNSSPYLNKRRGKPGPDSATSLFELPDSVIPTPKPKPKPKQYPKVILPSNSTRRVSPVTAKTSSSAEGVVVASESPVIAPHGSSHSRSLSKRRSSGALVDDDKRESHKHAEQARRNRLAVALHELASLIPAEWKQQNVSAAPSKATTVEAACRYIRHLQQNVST
Assay: relative binding free energy (BET-seq); higher = weaker binding
Details: reference: library average

Sequence | relative binding free energy [kcal/mol]
GAAATCACGTGGTGTA | 0.26
CGTGGCACGTGCGCGG | -0.39
GGATACACGTGTGGTT | 0.12
TTTGGCACGTGTCTTG | -0.14
AAAGGCACGTGTTATG | -0.01
GTATTCACGTGCAAGT | 0.24
GAGTTCACGTGATGGT | 0.42
ATAGTCACGTGCGTAT | -0.05
TCAAGCACGTGGGGGA | -0.27
CTTTGCACGTGGAGGA | 0.03
AATGTCACGTGTTGAG | 0.19
CTGTACACGTGTAGTT | 0.02
AAATACACGTGAGGTT | 0.19
GGGTCCACGTGGGAAT | 0.07
GTTGGCACGTGAGCTG | 0.03
CGTCTCACGTGTTAGG | 0.11
TAGGTCACGTGTGTTC | 0.15
TGGTACACGTGCATGA | 0.06
AAGGGCACGTGTAATT | 0.14
GGTTGCACGTGCTGGC | 0.04
CGATGCACGTGTTGCG | -0.01
GAAGGCACGTGCGGGA | -0.12
GTCGGCACGTGCGGGG | -0.05
TGCATCACGTGGTACT | 0.14
TTGGCCACGTGGGGGT | -0.19

Sequence | relative binding free energy [kcal/mol]
GAGGGCACGTGGCTAT | -0.22
AGTAGCACGTGAATAG | 0.26
TTATACACGTGGCAGG | -0.06
GTAATCACGTGTTTAT | 0.08
TATACCACGTGTTATT | 0.01
CATTTCACGTGGTGGG | 0.19
AGTGGCACGTGGGGAA | -0.18
TTCAGCACGTGTGATG | 0.06
TTTTACACGTGCGTGG | 0.14
GTTGTCACGTGACGTT | 0.11
TACGGCACGTGGGTAG | -0.19
CCGTGCACGTGTGTTG | 0.03
ATTAACACGTGGTATT | -0.16
GTAGCCACGTGAGGTT | 0.17
ATGTACACGTGTCGGT | 0.16
AGGAACACGTGGTGCG | -0.13
TGTGGCACGTGGGGAT | -0.17
TTCGTCACGTGTTAAA | 0.12
CAGGTCACGTGTGTTT | 0.06
AGTGTCACGTGCATTG | -0.06
TTGTCCACGTGGGCTG | -0.03
TAGCGCACGTGAGGGC | 0.12
TACGGCACGTGTGTTT | 0.05
GGGATCACGTGGTAAG | 0.21
AGCGTCACGTGTTGTG | 0.05

Sequence | relative binding free energy [kcal/mol]
GTTGTCACGTGTTGCG | 0.08
CTGGGCACGTGAGGGC | 0.11
TTCAACACGTGTGTAG | -0.03
AAGCGCACGTGGGGAG | -0.19
AGGATCACGTGATATG | 0.22
GATATCACGTGTATTA | 0.13
GTAATCACGTGGGTTC | 0.08
TGTGTCACGTGGATTT | 0.09
GTGGCCACGTGGGGAA | -0.15
AGCGTCACGTGGTGGG | 0.01
TTTGTCACGTGTGAGG | 0.2
GAGTGCACGTGGAATG | 0.23
GGATTCACGTGGAATT | 0.1
TGGTTCACGTGTTCGA | 0.22
ATAGGCACGTGGTAAG | -0.13
TATGGCACGTGTTCGG | -0.15
GATGTCACGTGCTTGT | 0.07
TGTTCCACGTGCGCGT | 0
TTTGACACGTGATCTT | 0.02
TCATTCACGTGGGAGG | 0.25
TGAAACACGTGAGGTA | 0.27
TTGCGCACGTGTTGTA | -0.13
GTGTGCACGTGACGAT | 0.11
TATTGCACGTGTCGTG | -0.03
ATTTGCACGTGGATGC | -0.08

Sequence | relative binding free energy [kcal/mol]
TGTGGCACGTGGCCCG | -0.2
ACGGGCACGTGGGGAT | -0.13
TTAGACACGTGGAGTT | 0.13
GGTGGCACGTGACCGG | -0.11
CGGCGCACGTGGATGG | -0.13
GATATCACGTGAGATT | 0.35
ATTTACACGTGTTATG | 0.08
AAATTCACGTGCGGTG | 0.24
TGTTACACGTGTTAGC | 0.14
GGCCGCACGTGAAGGT | 0.3
ATTGTCACGTGCGTCA | 0.06
TAAGTCACGTGTTTGC | 0.09
AATAACACGTGGTTGG | -0.05
AGCATCACGTGTGTGA | 0.21
TAGATCACGTGTGGTC | 0.19
GATGTCACGTGTGGCA | 0.02
TCAGCCACGTGTAGGG | 0.02
AAGCGCACGTGTAGTT | 0
CTATACACGTGGCTGG | 0.2
TAGTGCACGTGGAAAT | 0.13
TGATGCACGTGTGTCT | -0.07
TGGAGCACGTGGTATT | 0.01
GTGGTCACGTGCTGTC | 0.26
GTATGCACGTGTTAAT | 0.05
GTGGTCACGTGGGCGG | 0.06

Sequence | relative binding free energy [kcal/mol]
TTAAGCACGTGTTTTG | -0.1
TTTGGCACGTGATTCA | -0.07
GAGTCCACGTGGTTTG | 0.1
TGACGCACGTGTGTAG | -0.1
AGATGCACGTGTTAAG | 0.02
AATTTCACGTGAAATG | 0.22
GGCGGCACGTGGTGTT | -0.06
GTATACACGTGTTGGT | 0.08
TCATGCACGTGTGTAG | 0.02
TCTGTCACGTGGTAGG | 0
TGTTTCACGTGGCAGC | 0.28
ATTAGCACGTGATTAT | 0
ATAGACACGTGGTTTT | 0.09
TGTCACACGTGGGTTG | -0.13
AGTATCACGTGTAGGG | 0.1
TCGAACACGTGGGGTA | -0.08
TTATGCACGTGTCGGA | -0.1
GTGTGCACGTGTTTGC | 0.07
GGTGTCACGTGACTTT | 0.19
TCGATCACGTGGGTGT | -0.05
CTGTTCACGTGGGATG | 0.11
GCGATCACGTGGTAGT | 0.14
TTAATCACGTGTGAGT | 0.15
CTGCGCACGTGTATGT | -0.1
TTCAGCACGTGATGAG | 0.14

Sequence | relative binding free energy [kcal/mol]
GGGTGCACGTGAGGGA | 0.13
TAATTCACGTGCGGTA | 0.23
GGAGTCACGTGTTAGG | 0.25
CTTGTCACGTGTCGCG | 0.2
GGGTTCACGTGCAAGA | 0.42
TGATGCACGTGCCGTT | -0.13
TGTAACACGTGGGGCA | -0.12
GGATACACGTGTAGGA | 0.22
ATGGGCACGTGATAAG | 0.01
GGCGACACGTGATTGG | 0.19
CTTGCCACGTGATGGT | 0.06
AGGTACACGTGTTTTC | 0.16
TTTTGCACGTGTTTGA | 0.07
ATCGGCACGTGGATGG | -0.13
CGTATCACGTGGGATT | 0.24
TAATGCACGTGTATAG | 0.01
CGGGGCACGTGAGTTA | 0.19
GTGGCCACGTGGGTAA | -0.23
TGCGTCACGTGACGGT | 0.07
AAGGTCACGTGGGGGT | -0.03
CGTGACACGTGGTATT | -0.07
